# Results as given in a collection of fitness landscapes (doi:10.1016/j.celrep.2020.107928).
# Whole data set: some 81,000 sequences, median “one-hybrid fitness for binding NBS DNA” near -0.1, cut for the highest 2% near 0.36. The list shows a part of the results.
# B1: Caulobacter ParB omega fusion; a variant is named by its letters at X, in order, B8GW30 (parent)
# chain: MESVVVGEPGMSEGRRGLGRGLSALLGEVDAAPAQAPGEQLGGSREAPIEILQRNPDQPRRTFREEDLEDLSNSIREKGVLQPILVRPSPDTAGEYQIVAGERAWRAAQRAGLKTVPIMVRELDDLAVLEIGIIENVQRADLNVLEEALSYKVLMEKFERTQENIAQTIGKSXSHVANXMRLLXLPDEVQSYLVSGELTAXHARAIAAAADPVALAKQIIEGGLSVRETEALARKAPNLSAGKSKGGRPPRVKDTDTQALESDLSSVLGLDVSIDHRGSTGTLTITYATLEQLDDLCNRLTRGI
# Variants of: B1
# Experiment: one-hybrid fitness for binding NBS DNA (the Noc-binding site; scaled: cognate 1, non-cognate 0); higher = stronger binding
# Details: with NBS DNA site
# Outline: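 Bacterial one-hybrid selection in E. coli USO rpoZ- hisB- pyrF- with a HIS3 reporter carrying the site 19 bp from the promoter, screening Caulobacter ParB libraries with four specificity codons randomised (NNS). Cells grew 48 hours at 37°C on M9-minus-histidine plus 0.1 mM IPTG and 5 mM 3-AT. Plasmids before and after selection were Illumina-sequenced, three replicate libraries pooled, and variants under 10 reads dropped. Fitness is the log change in variant-to-wild-type read ratio, rescaled to cognate 1, non-cognate 0.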
row,Variant,one-hybrid fitness for binding NBS DNA
1,NQAG,≤ 0.2
2,TAKA,≤ 0.2
3,YIKR,≤ 0.2
4,RWRA,≤ 0.2
5,GSAP,≤ 0.2
6,LNQL,≤ 0.2
7,QSRK,0.376
8,WAYT,≤ 0.2
9,GGPR,≤ 0.2
10,TQIR,≤ 0.2
11,LPKV,≤ 0.2
12,GVSH,≤ 0.2
13,MVMR,≤ 0.2
14,QKAP,≤ 0.2
15,ALHA,≤ 0.2
16,GQHT,≤ 0.2
17,AMSV,≤ 0.2
18,ICRN,≤ 0.2
19,DVLR,≤ 0.2
20,RSNH,0.223
21,DITC,≤ 0.2
22,VWSV,≤ 0.2
23,NLNA,≤ 0.2
24,GQMS,≤ 0.2
25,PGLL,≤ 0.2

row,Variant,one-hybrid fitness for binding NBS DNA
1,WEAR,≤ 0.2
2,NSIG,≤ 0.2
3,VEAR,≤ 0.2
4,TTDS,≤ 0.2
5,GLSI,≤ 0.2
6,KRWY,≤ 0.2
7,LQNL,≤ 0.2
8,LCER,≤ 0.2
9,PGQT,≤ 0.2
10,SIMK,≤ 0.2
11,HHIF,≤ 0.2
12,DETT,≤ 0.2
13,KAPF,≤ 0.2
14,HFEC,≤ 0.2
15,MDAR,≤ 0.2
16,HHNI,≤ 0.2
17,VVGS,≤ 0.2
18,PDNL,≤ 0.2
19,SAVA,≤ 0.2
20,QYKC,0.371
21,WACS,≤ 0.2
22,NAGM,≤ 0.2
23,KRLL,≤ 0.2
24,NEKR,≤ 0.2
25,LSKS,≤ 0.2

row,Variant,one-hybrid fitness for binding NBS DNA
1,CPHI,≤ 0.2
2,HSPW,≤ 0.2
3,SRVA,≤ 0.2
4,PAHS,≤ 0.2
5,EPST,≤ 0.2
6,KYER,≤ 0.2
7,TSET,≤ 0.2
8,NQNP,≤ 0.2
9,GNSA,≤ 0.2
10,VGNS,≤ 0.2
11,PSAP,≤ 0.2
12,AHEG,≤ 0.2
13,WFTG,≤ 0.2
14,KYFS,≤ 0.2
15,RMPE,≤ 0.2
16,SLVY,≤ 0.2
17,ISMV,≤ 0.2
18,MAIV,≤ 0.2
19,PQCG,≤ 0.2
20,RMYA,≤ 0.2
21,ATTD,≤ 0.2
22,PYGW,≤ 0.2
23,RLWH,≤ 0.2
24,MHAP,≤ 0.2
25,QSIE,≤ 0.2

row,Variant,one-hybrid fitness for binding NBS DNA
1,AAEE,≤ 0.2
2,PRQD,≤ 0.2
3,MCTS,≤ 0.2
4,HCWY,≤ 0.2
5,CAMS,≤ 0.2
6,YDGS,≤ 0.2
7,ADPG,≤ 0.2
8,NAPH,≤ 0.2
9,KTTP,≤ 0.2
10,MASS,≤ 0.2
11,GSLS,≤ 0.2
12,MLGC,≤ 0.2
13,PSQF,≤ 0.2
14,YLDG,≤ 0.2
15,SNER,≤ 0.2
16,HAPA,≤ 0.2
17,DQTE,≤ 0.2
18,TTQR,≤ 0.2
19,CTGG,≤ 0.2
20,VVMF,≤ 0.2
21,RCFY,≤ 0.2
22,VHNW,≤ 0.2
23,EMCG,≤ 0.2
24,TLTQ,≤ 0.2
25,TSFV,≤ 0.2

row,Variant,one-hybrid fitness for binding NBS DNA
1,LKGC,≤ 0.2
2,QQGT,0.475
3,HWRG,≤ 0.2
4,YVYP,≤ 0.2
5,GIAA,≤ 0.2
6,LTWC,≤ 0.2
7,FWNR,≤ 0.2
8,RTSN,≤ 0.2
9,HWDG,≤ 0.2
10,SHAV,≤ 0.2
11,MPLM,≤ 0.2
12,HMWT,≤ 0.2
13,STPR,≤ 0.2
14,PKVP,≤ 0.2
15,APLL,≤ 0.2
16,VYCS,≤ 0.2
17,ATQN,≤ 0.2
18,HIDQ,≤ 0.2
19,PRTN,≤ 0.2
20,FNKV,≤ 0.2
21,SCEG,≤ 0.2
22,LATD,≤ 0.2
23,PSCS,≤ 0.2
24,RSYV,≤ 0.2
25,PVMP,≤ 0.2

row,Variant,one-hybrid fitness for binding NBS DNA
1,ALTQ,≤ 0.2
2,HNLC,≤ 0.2
3,CICG,≤ 0.2
4,KFLR,≤ 0.2
5,GFSG,≤ 0.2
6,QPDH,≤ 0.2
7,RQHK,≤ 0.2
8,FCHW,≤ 0.2
9,VTHP,≤ 0.2
10,GCQP,≤ 0.2
11,QAKT,0.692
12,WHRL,≤ 0.2
13,PCAW,≤ 0.2
14,QQCA,0.291
15,QRIV,≤ 0.2
16,KPMS,≤ 0.2
17,VPKK,≤ 0.2
18,RCWA,≤ 0.2
19,RWNH,≤ 0.2
20,KPDM,≤ 0.2
21,KRKS,0.536
22,NTWW,≤ 0.2
23,LHVM,≤ 0.2
24,PQTA,≤ 0.2
25,QLFK,≤ 0.2

row,Variant,one-hybrid fitness for binding NBS DNA
1,QYQL,≤ 0.2
2,PTEG,≤ 0.2
3,QREC,0.22
4,HAKH,≤ 0.2
5,LHVV,≤ 0.2
6,QKIF,≤ 0.2
7,IDPV,≤ 0.2
8,MVLR,≤ 0.2
9,HYKT,≤ 0.2
10,SQNR,≤ 0.2
11,IDVC,≤ 0.2
12,APED,≤ 0.2
13,FYYS,≤ 0.2
14,EQML,≤ 0.2
15,VIYM,≤ 0.2
16,FALS,≤ 0.2
17,KRAQ,≤ 0.2
18,EGAT,≤ 0.2
19,PATY,≤ 0.2
20,FYCS,≤ 0.2
21,HVTT,≤ 0.2
22,SEWF,≤ 0.2
23,RMNV,≤ 0.2
24,WACV,≤ 0.2
25,ILEY,≤ 0.2

row,Variant,one-hybrid fitness for binding NBS DNA
1,RETC,≤ 0.2
2,SNNR,≤ 0.2
3,ARDI,≤ 0.2
4,GVLG,≤ 0.2
5,KYVP,≤ 0.2
6,CWRI,≤ 0.2
7,SVWV,≤ 0.2
8,IQRH,≤ 0.2
9,CESG,≤ 0.2
10,GAWI,≤ 0.2
11,HCYG,≤ 0.2
12,YTWG,≤ 0.2
13,SCHS,≤ 0.2
14,SCKL,≤ 0.2
15,THRA,≤ 0.2
16,RQYG,≤ 0.2
17,PDWS,≤ 0.2
18,EVNV,≤ 0.2
19,EYQE,≤ 0.2
20,QQDF,≤ 0.2
